This is one part of the list.
Tests used:
Assay in all cases: glycan array binding signal (z-score within array); higher = stronger binding
Settings in all cases: glycan notation: IUPAC condensed, linker removed
[1] = target: Gal(b1-3)GlcNAc(b1-3)GalNAc
How it was run: (§1)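 Arrays were curated from the Consortium for Functional Glycomics database, 3228 in total, and kept only where the protein sequence was available. Binding is expressed as a within-array Z-score. This score was averaged across arrays of the same protein sequence at different concentrations or buffers and across linkers, and negative values can be read as non-binding.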

[2] = target: Gal(b1-3)GlcNAc(b1-6)Gal(b1-4)GlcNAc
How it was run: as §1

[3] = target: Gal(b1-3)GlcNAc(b1-6)GalNAc
How it was run: as §1

[4] = target: Gal(b1-3)GlcNAc(b1-6)[Gal(b1-3)]GalNAc
How it was run: as §1

Gal(b1-3)GlcNAc6S = target: Gal(b1-3)GlcNAc6S
How it was run: as §1

[5] = target: Gal(b1-3)[Fuc(a1-4)]GlcNAc
How it was run: as §1

[6] = target: Gal(b1-3)[Fuc(a1-4)]GlcNAc(b1-2)Man
How it was run: as §1

[7] = target: Gal(b1-3)[Fuc(a1-4)]GlcNAc(b1-2)Man(a1-3)[Gal(b1-3)[Fuc(a1-4)]GlcNAc(b1-2)Man(a1-6)]Man(b1-4)GlcNAc(b1-4)[Fuc(a1-6)]GlcNAc
How it was run: as §1

[8] = target: Gal(b1-3)[Fuc(a1-4)]GlcNAc(b1-3)Gal(b1-3)[Fuc(a1-4)]GlcNAc
How it was run: as §1

[9] = target: Gal(b1-3)[Fuc(a1-4)]GlcNAc(b1-3)Gal(b1-4)GlcNAc
How it was run: as §1

[10] = target: Gal(b1-3)[Fuc(a1-4)]GlcNAc(b1-3)Gal(b1-4)[Fuc(a1-3)]GlcNAc
How it was run: as §1

[11] = target: Gal(b1-3)[Fuc(a1-4)]GlcNAc(b1-6)GalNAc
How it was run: as §1

[12] = target: Gal(b1-3)[GlcNAc(b1-6)]GalNAc
How it was run: as §1

[13] = target: Gal(b1-3)[GlcNAc(b1-6)]GlcNAc
How it was run: as §1

[14] = target: Gal(b1-3)[Neu5Ac(a2-6)]GalNAc
How it was run: as §1

[15] = target: Gal(b1-3)[Neu5Ac(a2-6)]GlcNAc
How it was run: as §1

[16] = target: Gal(b1-3)[Neu5Ac(a2-6)]GlcNAc(a1-4)Gal(b1-4)Glc
How it was run: as §1

[17] = target: Gal(b1-3)[Neu5Ac(a2-6)]GlcNAc(b1-4)Gal(b1-4)Glc
How it was run: as §1

[18] = target: Gal(b1-3)[Neu5Ac(a2-6)]GlcNAc(b1-6)Gal(b1-4)Glc
How it was run: as §1

[19] = target: Gal(b1-3)[Neu5Ac(b2-6)]GalNAc
How it was run: as §1

[20] = target: Gal(b1-3)[Neu5Ac(b2-6)]GlcNAc
How it was run: as §1

Gal(b1-4)Gal = target: Gal(b1-4)Gal
How it was run: as §1

[21] = target: Gal(b1-4)GalNAc(a1-3)[Fuc(a1-2)]Gal(b1-4)GlcNAc
How it was run: as §1

[22] = target: Gal(b1-4)GalNAc(b1-3)[Fuc(a1-2)]Gal(b1-4)GlcNAc
How it was run: as §1

Gal(b1-4)Glc = target: Gal(b1-4)Glc
How it was run: as §1

Gal(b1-4)Glc6S = target: Gal(b1-4)Glc6S
How it was run: as §1

Gal(b1-4)GlcNAc = target: Gal(b1-4)GlcNAc
How it was run: as §1

[23] = target: Gal(b1-4)GlcNAc(a1-6)Gal(b1-4)GlcNAc
How it was run: as §1

Gal(b1-4)GlcNAc(b1-2)Man = target: Gal(b1-4)GlcNAc(b1-2)Man
How it was run: as §1

[24] = target: Gal(b1-4)GlcNAc(b1-2)Man(a1-3)Man(b1-4)GlcNAc(b1-4)GlcNAc
How it was run: as §1

[25] = target: Gal(b1-4)GlcNAc(b1-2)Man(a1-3)[Gal(b1-4)GlcNAc(b1-2)Man(a1-6)]Man(b1-4)GlcNAc(b1-4)GlcNAc
How it was run: as §1

[26] = target: Gal(b1-4)GlcNAc(b1-2)Man(a1-3)[Gal(b1-4)GlcNAc(b1-2)Man(a1-6)]Man(b1-4)GlcNAc(b1-4)[Fuc(a1-6)]GlcNAc
How it was run: as §1

[27] = target: Gal(b1-4)GlcNAc(b1-2)Man(a1-3)[Gal(b1-4)GlcNAc(b1-2)Man(a1-6)][Gal(b1-4)GlcNAc(b1-4)]Man(b1-4)GlcNAc(b1-4)[Fuc(a1-6)]GlcNAc
How it was run: as §1

[28] = target: Gal(b1-4)GlcNAc(b1-2)Man(a1-3)[Gal(b1-4)GlcNAc(b1-2)Man(a1-6)][GlcNAc(b1-4)]Man(b1-4)GlcNAc(b1-4)[Fuc(a1-6)]GlcNAc
How it was run: as §1

[29] = target: Gal(b1-4)GlcNAc(b1-2)Man(a1-3)[GlcNAc(b1-2)Man(a1-6)]Man(b1-4)GlcNAc(b1-4)GlcNAc
How it was run: as §1

[30] = target: Gal(b1-4)GlcNAc(b1-2)Man(a1-3)[GlcNAc(b1-4)][Gal(b1-4)GlcNAc(b1-2)Man(a1-6)]Man(b1-4)GlcNAc(b1-4)GlcNAc
How it was run: as §1

[31] = target: Gal(b1-4)GlcNAc(b1-2)Man(a1-3)[Man(a1-6)]Man(b1-4)GlcNAc(b1-4)GlcNAc
How it was run: as §1

[32] = target: Gal(b1-4)GlcNAc(b1-2)Man(a1-6)Man(b1-4)GlcNAc(b1-4)GlcNAc
How it was run: as §1

[33] = target: Gal(b1-4)GlcNAc(b1-2)Man(a1-6)[GlcNAc(b1-2)Man(a1-3)]Man(b1-4)GlcNAc(b1-4)GlcNAc
How it was run: as §1

[34] = target: Gal(b1-4)GlcNAc(b1-2)Man(a1-6)[Man(a1-3)]Man(b1-4)GlcNAc(b1-4)GlcNAc
How it was run: as §1

[35] = target: Gal(b1-4)GlcNAc(b1-2)[Gal(b1-4)GlcNAc(b1-4)]Man(a1-3)[Gal(b1-4)GlcNAc(b1-2)Man(a1-6)]Man(b1-4)GlcNAc(b1-4)GlcNAc
How it was run: as §1

[36] = target: Gal(b1-4)GlcNAc(b1-2)[Gal(b1-4)GlcNAc(b1-4)]Man(a1-3)[Gal(b1-4)GlcNAc(b1-2)[Gal(b1-4)GlcNAc(b1-6)]Man(a1-6)]Man(b1-4)GlcNAc(b1-4)GlcNAc
How it was run: as §1

[37] = target: Gal(b1-4)GlcNAc(b1-2)[Gal(b1-4)GlcNAc(b1-4)]Man(a1-3)[GlcNAc(b1-4)][Gal(b1-4)GlcNAc(b1-2)Man(a1-6)]Man(b1-4)GlcNAc(b1-4)GlcNAc
How it was run: as §1

[38] = target: Gal(b1-4)GlcNAc(b1-2)[Gal(b1-4)GlcNAc(b1-4)]Man(a1-3)[GlcNAc(b1-4)][Gal(b1-4)GlcNAc(b1-2)[Gal(b1-4)GlcNAc(b1-6)]Man(a1-6)]Man(b1-4)GlcNAc(b1-4)GlcNAc
How it was run: as §1

[39] = target: Gal(b1-4)GlcNAc(b1-2)[Gal(b1-4)GlcNAc(b1-6)]Man(a1-6)[Gal(b1-4)GlcNAc(b1-2)Man(a1-3)]Man(b1-4)GlcNAc(b1-4)GlcNAc
How it was run: as §1

B1: EEA (Euonymus europaeus) (protein)
chain: MASTIIATGPTYRVYCRAAPNYNMIVGKGVAFLAPIDETNELQYWYKDDTYSYIKDEAGLPAFSLVNKATGLTLKHSNHHPVPVKLVTYNPNVVDESVLWSQADDRGDGYSAIRSLTNPASHLEAAPLNDWSYNGAIIMGGVWIDAYNQQWKIEPHTG
glycan array binding signal (z-score) [1]: -0.173 | glycan array binding signal (z-score) [2]: -0.231 | glycan array binding signal (z-score) [3]: -0.212 | glycan array binding signal (z-score) [4]: -0.187 | glycan array binding signal (z-score) (Gal(b1-3)GlcNAc6S): -0.224 | glycan array binding signal (z-score) [5]: -0.228 | glycan array binding signal (z-score) [6]: -0.125 | glycan array binding signal (z-score) [7]: -0.037 | glycan array binding signal (z-score) [8]: -0.168 | glycan array binding signal (z-score) [9]: -0.258 | glycan array binding signal (z-score) [10]: -0.072 | glycan array binding signal (z-score) [11]: -0.142 | glycan array binding signal (z-score) [12]: -0.15 | glycan array binding signal (z-score) [13]: -0.229 | glycan array binding signal (z-score) [14]: -0.159 | glycan array binding signal (z-score) [15]: -0.289 | glycan array binding signal (z-score) [16]: -0.226 | glycan array binding signal (z-score) [17]: -0.254 | glycan array binding signal (z-score) [18]: -0.302 | glycan array binding signal (z-score) [19]: -0.22 | glycan array binding signal (z-score) [20]: -0.268 | glycan array binding signal (z-score) (Gal(b1-4)Gal): -0.21 | glycan array binding signal (z-score) [21]: -0.227 | glycan array binding signal (z-score) [22]: -0.213 | glycan array binding signal (z-score) (Gal(b1-4)Glc): -0.146 | glycan array binding signal (z-score) (Gal(b1-4)Glc6S): -0.19 | glycan array binding signal (z-score) (Gal(b1-4)GlcNAc): -0.144 | glycan array binding signal (z-score) [23]: -0.19 | glycan array binding signal (z-score) (Gal(b1-4)GlcNAc(b1-2)Man): -0.174 | glycan array binding signal (z-score) [24]: -0.282 | glycan array binding signal (z-score) [25]: -0.229 | glycan array binding signal (z-score) [26]: -0.044 | glycan array binding signal (z-score) [27]: -0.282 | glycan array binding signal (z-score) [28]: -0.262 | glycan array binding signal (z-score) [29]: -0.235 | glycan array binding signal (z-score) [30]: -0.219 | glycan array binding signal (z-score) [31]: -0.243 | glycan array binding signal (z-score) [32]: -0.249 | glycan array binding signal (z-score) [33]: -0.27 | glycan array binding signal (z-score) [34]: -0.212 | glycan array binding signal (z-score) [35]: -0.173 | glycan array binding signal (z-score) [36]: -0.226 | glycan array binding signal (z-score) [37]: -0.073 | glycan array binding signal (z-score) [38]: -0.18 | glycan array binding signal (z-score) [39]: -0.213
